B1: tRNA (parent)
chain: CUCUCGGUAGCCAAGUUGGUUUAAGGCGCAAGACUUUAAUUUAUCACUACGAAAUCUUGAGAUCGGGCGUUCGACUCGCCCCCGGGAGAUUUUUUCCUCGAGCAA

Variants at the background level are over-represented here.

Variants of B1 are the subject of the data set. The data set can be described thus: nonsense suppression (GFP-seq) (ratio to wild type); higher = more function; SUP4oc tRNA, yeast GFP reporter sort-seq. In a few lines: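 Sorted GFP/RFP bins of yeast were each Illumina-sequenced with a phred ≥30 cutoff; the cells held a genome-integrated ochre-suppressor tRNA variant from a library with ~3% random mutations, a galactose-driven GFP ochre reporter, and RFP. Culture was in raffinose/galactose medium containing 80 mg/L adenine. Nonsense suppression, termed GFPSEQ, is the median GFP/RFP of the bins weighted by each variant's estimated cell share per bin, relative to the unmutated parent tRNA, for variants reaching ≥100 reads and ≥30 cells.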
For the variant C3A U71C A74G G84C, the nonsense suppression was at most 0.026. The figure for U21A C34G A54G is at most 0.026.

Consider G66A A87G, for which the nonsense suppression was at most 0.026.

For U16G G66A G67C, the nonsense suppression was at most 0.026. Under C3U U4C A14C U57C stands at most 0.026; under C3G A23U G28U U57C G67A, at most 0.026. Under U4C G19A stands at most 0.026. The figure for C3A C12U U16A U22G is at most 0.026. Consider A14G U17A, for which the nonsense suppression is at most 0.026. The figure for C11A G19U G61C is at most 0.026. The figure for G26C A31C is at most 0.026; for A23C C77A it is at most 0.026; for U4G A74G it is 0.0287. Regarding G10A G19A G32C C79G C83U, the nonsense suppression is at most 0.026. Under C34A G66C stands at most 0.026; under C11G C34A A62G G65U, at most 0.026; under U22A U35G, at most 0.026. Under U57G U70A G78U stands at most 0.026; under C11G C12U G25U G88U, at most 0.026; under C5U U55G G86U A89C, at most 0.026. Under U8A A30G U35G G69A stands at most 0.026; under G59U A87U, at most 0.026; under C3U U22G A24U G26A G32A, at most 0.026. As for G15C G85A, the nonsense suppression is at most 0.026. Turning to C1U G10U G15U C68G, the nonsense suppression is at most 0.026.

Consider U20G A31G G61C A89U, for which the nonsense suppression is at most 0.026. The figure for U20G U35A is at most 0.026; for C11U G61A it is at most 0.026. The figure for U21A C34G C82U A89U is at most 0.026. The figure for C1G C11U G69U is at most 0.026; for C29A C64U G84A it is at most 0.026; for G10U U57G it is at most 0.026.

For the variant G28U G59A, the nonsense suppression was at most 0.026. Consider C12U A13G, for which the nonsense suppression was 0.153. The figure for G15A C82G is at most 0.026. The figure for G32A U76G is at most 0.026; for G18U G32U G61C A74C it is at most 0.026; for A14U U76G G78U it is at most 0.026. The figure for C68G U76C is at most 0.026; for U16C U17G A30C G78C it is at most 0.026; for G18U C83A it is at most 0.026. Take G18U A24G U63G G88C: the nonsense suppression was at most 0.026.

On to A33U A54C A60C, for which the nonsense suppression is at most 0.026. The figure for G28C A89G is 0.0403; for C1G G18U G73A it is at most 0.026; for G26U C29G A30U G32C G85U it is at most 0.026. For G18C A23U A33G G78C, the nonsense suppression was at most 0.026.

For U17A U55C, the nonsense suppression came out at 0.176. For C3G G26A G28C U58G G61A A74G, the nonsense suppression is at most 0.026. Consider C12U G19C A23C G32U, for which the nonsense suppression was at most 0.026. The figure for C3A U71C C75G is at most 0.026. With A14U U20G A60C, the nonsense suppression is at most 0.026. The figure for A31C G88A is at most 0.026; for A30U G66C C72U A87G it is at most 0.026; for A31G A87G it is 0.762.

As for U2C A9C G32U G85C, the nonsense suppression is at most 0.026. The figure for U16A G26U G86A is at most 0.026.

Turning to G61U U71C, the nonsense suppression is at most 0.026. Under C29U U35C G88U A89G stands at most 0.026. Regarding C5A G10A C68U C72U, the nonsense suppression was at most 0.026. Under C1U G25U G59C stands at most 0.026; under C81A G88C, at most 0.026. The figure for G19C G28C C56G is at most 0.026; for G67A U71C A89C it is at most 0.026.

Take U2G C81G: the nonsense suppression was at most 0.026. The figure for G7C G10U C27A C82G C83U is at most 0.026; for C27A G85A it is at most 0.026.

For A24G G67A C81A, the nonsense suppression was at most 0.026. The figure for G19C G32C U57C is at most 0.026; for G67A C68G it is at most 0.026; for G25C U55A it is at most 0.026. The figure for C3U G26A is at most 0.026. The figure for A62G C75A is 0.219; for A13C A24U U70C G86U it is at most 0.026; for A31C C77G it is at most 0.026. Consider C27U U63G, for which the nonsense suppression is at most 0.026.

On to U63A G67C G78U, for which the nonsense suppression is at most 0.026. Under C29A G69A A87C stands at most 0.026; under A31G U70G, at most 0.026. C1A C79G: the nonsense suppression was at most 0.026. Under G78A stands 0.775; under U55G G78U, at most 0.026; under C1G A30G C34G, at most 0.026. U20G C83A: the nonsense suppression is at most 0.026.

On to A14G A30G C79A, for which the nonsense suppression was at most 0.026. The figure for A23C A31U is at most 0.026; for A13C U57C it is 0.0326. The figure for G7C G61U is at most 0.026; for C11U C68A U76C C83G it is at most 0.026; for C27U A74C C75G A89U it is at most 0.026. The figure for U71C G84A is at most 0.026.

Turning to G7A U16C U20C U57A G59U A60U G61A G85U, the nonsense suppression was at most 0.026.

With G18U A24U G66U, the nonsense suppression was at most 0.026.

U2G G19C: the nonsense suppression was at most 0.026. U2G U21C A62C: the nonsense suppression was at most 0.026. The figure for C5G G15A C81U is at most 0.026. The figure for G19C G32A A60C G69U A74C is at most 0.026; for C12G U20A G67C A74C it is at most 0.026; for U16C G73U C79U it is at most 0.026. As for U17C A23C A62G, the nonsense suppression is at most 0.026.

For U2G U76A G78C, the nonsense suppression was at most 0.026. The figure for C5G A74G is at most 0.026; for G7U G86A it is at most 0.026. The figure for C56G G61C G88U is at most 0.026; for G10A A14C it is at most 0.026; for C11A U21C U22G G32C it is at most 0.026. Under U70A U71C stands at most 0.026. As to G28C C82G, the nonsense suppression is at most 0.026. The figure for U20C C83A is at most 0.026; for C5G U63C G78C C79A it is at most 0.026; for G18A A74C C81G A89C it is at most 0.026. Under A23G A24U C56U G61C C64U stands at most 0.026; under G7C G28A, at most 0.026. Consider G67C C81U, for which the nonsense suppression was at most 0.026. The figure for U22G C27U C29U is at most 0.026; for C68A C81G it is at most 0.026.

For C3G A31C C68G C77U, the nonsense suppression is at most 0.026. Under U22C U55G G59A G69U stands at most 0.026; under C56G G61A C83G, at most 0.026; under G18C U70G C80A G88A, at most 0.026. In the case of C1U A13G A24G C83G, the nonsense suppression is at most 0.026. The figure for C29A C81G is at most 0.026; for U22A G66C C77U it is at most 0.026.

As for G18A U21G G32C U63C, the nonsense suppression is at most 0.026. The figure for G7A C29A A33U is at most 0.026; for C3A U4C U21G it is at most 0.026; for U17A G61C it is 0.665. The figure for A9G C11U G67C C68G C80G is at most 0.026. Under A14G G32C A74U stands at most 0.026; under C3A G85A, at most 0.026; under U8A U70A, at most 0.026.

In the case of C5A A23C G26U, the nonsense suppression is at most 0.026. Under G7U A9U A31U stands at most 0.026; under C11U A33G, at most 0.026; under A87C, at most 0.026.

As to A31U C56G C72U, the nonsense suppression is at most 0.026. As for U2G U35A C56G G88A, the nonsense suppression is at most 0.026.

As to G66A C77G, the nonsense suppression is at most 0.026. Turning to G26U G28C A31G A74U, the nonsense suppression is at most 0.026. As for G61U C80U, the nonsense suppression amounted to 0.677.

Consider G7U U57C, for which the nonsense suppression was at most 0.026. Turning to G6U U21G, the nonsense suppression is at most 0.026. Under U17A A23C U71C stands at most 0.026; under G28A G67A C72A, at most 0.026. With C5U G19A, the nonsense suppression was at most 0.026.

Regarding C27G A33G A60C G65U, the nonsense suppression is at most 0.026. Under A54G C81A C82G stands at most 0.026; under C79A C83A, at most 0.026. Under U4C A13C U76G stands at most 0.026; under G10A U58G U76G, at most 0.026. C29A C64U: the nonsense suppression is at most 0.026. The figure for U8A C12A A54U is at most 0.026; for A23C C75U G78U G88A it is at most 0.026; for C56G C79U C82U it is at most 0.026. The figure for U8C C11A U55A is at most 0.026. Regarding C34A C64U G88A, the nonsense suppression was at most 0.026. Under G15C G67A stands at most 0.026. With A60G G67A G69U A74G U76C, the nonsense suppression is at most 0.026. Under C11G G26U C34G G66C stands at most 0.026. Under G6A U21C A30G G67C U71A G78A stands at most 0.026.

With C5A U22C A74C, the nonsense suppression was at most 0.026. In the case of U20A G73C, the nonsense suppression was determined as 0.0366. The figure for C80A G85A is at most 0.026; for A14U G19C it is at most 0.026. As for A14C C27U G66A, the nonsense suppression was at most 0.026. The figure for C1G C34U U55A G67A is at most 0.026. Take C72U G73C U76G: the nonsense suppression is at most 0.026.

The values above are taken from the RNAGym collection of RNA variant scans (doi:10.1101/gad.245936.114).
